# The supplement of paper PMC8728848
# The other results are listed elsewhere or left out.
# What was measured:
# Assay in all cases: glycan array binding signal (z-score within array); higher = stronger binding
# Conditions in all cases: glycan notation: IUPAC condensed, linker removed
# Gal6S(b1-4)Glc6S = biological target: Gal6S(b1-4)Glc6S
# Method in brief: (§1)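 The binding signal is a Z-score computed within each array and averaged over linkers. Arrays of the same protein sequence at different concentrations or buffers were also averaged together. Data originate from 3228 arrays in the Consortium for Functional Glycomics database, kept only where the protein sequence was available.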
# Gal6S(b1-4)GlcNAc = biological target: Gal6S(b1-4)GlcNAc
# Method in brief: as §1
# GalNAc(a1-3)Gal = biological target: GalNAc(a1-3)Gal
# Method in brief: as §1
# GalNAc(a1-3)GalNAc = biological target: GalNAc(a1-3)GalNAc
# Method in brief: as §1
# [1] = biological target: GalNAc(b1-3)Gal(a1-4)Gal(b1-4)GlcNAc
# Method in brief: as §1
# GalNAc(b1-4)GlcNAc = biological target: GalNAc(b1-4)GlcNAc
# Method in brief: as §1
# Glc(a1-4)Glc = biological target: Glc(a1-4)Glc
# Method in brief: as §1
# Glc(a1-6)Glc(a1-6)Glc = biological target: Glc(a1-6)Glc(a1-6)Glc
# Method in brief: as §1
# Glc(b1-4)Glc = biological target: Glc(b1-4)Glc
# Method in brief: as §1
# Glc(b1-6)Glc = biological target: Glc(b1-6)Glc
# Method in brief: as §1
# GlcA(b1-3)Gal = biological target: GlcA(b1-3)Gal
# Method in brief: as §1
# GlcA(b1-6)Gal = biological target: GlcA(b1-6)Gal
# Method in brief: as §1
# [2] = biological target: GlcNAc(a1-3)Gal(b1-4)GlcNAc
# Method in brief: as §1
# [3] = biological target: GlcNAc(a1-6)Gal(b1-4)GlcNAc
# Method in brief: as §1
# [4] = biological target: GlcNAc(b1-2)Gal(b1-3)GlcNAc
# Method in brief: as §1
# [5] = biological target: GlcNAc(b1-2)Man(a1-3)[GlcNAc(b1-2)Man(a1-6)]Man(b1-4)GlcNAc(b1-4)GlcNAc
# Method in brief: as §1
# GlcNAc(b1-3)Gal = biological target: GlcNAc(b1-3)Gal
# Method in brief: as §1
# [6] = biological target: GlcNAc(b1-3)Gal(b1-3)GalNAc
# Method in brief: as §1
# GlcNAc(b1-3)Gal(b1-4)Glc = biological target: GlcNAc(b1-3)Gal(b1-4)Glc
# Method in brief: as §1
# [7] = biological target: GlcNAc(b1-3)Gal(b1-4)GlcNAc
# Method in brief: as §1
# [8] = biological target: GlcNAc(b1-3)Gal(b1-4)GlcNAc(b1-3)Gal(b1-4)GlcNAc
# Method in brief: as §1
# GlcNAc(b1-3)GalNAc = biological target: GlcNAc(b1-3)GalNAc
# Method in brief: as §1
# [9] = biological target: GlcNAc(b1-3)[GlcNAc(b1-4)][GlcNAc(b1-6)]GlcNAc
# Method in brief: as §1
# [10] = biological target: GlcNAc(b1-3)[GlcNAc(b1-6)]Gal(b1-4)GlcNAc
# Method in brief: as §1
# [11] = biological target: GlcNAc(b1-3)[GlcNAc(b1-6)]GlcNAc
# Method in brief: as §1
# [12] = biological target: GlcNAc(b1-4)Gal(b1-4)GlcNAc
# Method in brief: as §1
# [13] = biological target: GlcNAc(b1-4)GlcNAc(b1-4)GlcNAc
# Method in brief: as §1
# [14] = biological target: GlcNAc(b1-4)GlcNAc(b1-4)GlcNAc(b1-4)GlcNAc(b1-4)GlcNAc
# Method in brief: as §1
# [15] = biological target: GlcNAc(b1-4)GlcNAc(b1-4)GlcNAc(b1-4)GlcNAc(b1-4)GlcNAc(b1-4)GlcNAc
# Method in brief: as §1
# [16] = biological target: GlcNAc(b1-4)[GlcNAc(b1-6)]GalNAc
# Method in brief: as §1
# [17] = biological target: GlcNAc(b1-6)Gal(b1-4)GlcNAc
# Method in brief: as §1
# GlcNAc(b1-6)GalNAc = biological target: GlcNAc(b1-6)GalNAc
# Method in brief: as §1
# Kdn(a2-3)Gal(b1-3)GlcNAc = biological target: Kdn(a2-3)Gal(b1-3)GlcNAc
# Method in brief: as §1
# Kdn(a2-3)Gal(b1-4)GlcNAc = biological target: Kdn(a2-3)Gal(b1-4)GlcNAc
# Method in brief: as §1
# [18] = biological target: Man(a1-2)Man(a1-2)Man(a1-3)Man
# Method in brief: as §1
# [19] = biological target: Man(a1-2)Man(a1-2)Man(a1-3)[Man(a1-2)Man(a1-3)[Man(a1-2)Man(a1-6)]Man(a1-6)]Man(b1-4)GlcNAc(b1-4)GlcNAc
# Method in brief: as §1
# [20] = biological target: Man(a1-2)Man(a1-2)Man(a1-3)[Man(a1-2)Man(a1-6)[Man(a1-3)]Man(a1-6)]Man(b1-4)GlcNAc(b1-4)GlcNAc
# Method in brief: as §1
# [21] = biological target: Man(a1-2)Man(a1-2)Man(a1-6)[Man(a1-3)]Man
# Method in brief: as §1
# Man(a1-2)Man(a1-3)Man = biological target: Man(a1-2)Man(a1-3)Man
# Method in brief: as §1
# [22] = biological target: Man(a1-2)Man(a1-3)[Man(a1-2)Man(a1-6)]Man
# Method in brief: as §1
# [23] = biological target: Man(a1-2)Man(a1-3)[Man(a1-3)[Man(a1-6)]Man(a1-6)]Man(b1-4)GlcNAc(b1-4)GlcNAc
# Method in brief: as §1
# [24] = biological target: Man(a1-2)Man(a1-3)[Man(a1-6)]Man(a1-6)[Man(a1-2)Man(a1-3)]Man(b1-4)GlcNAc(b1-4)GlcNAc
# Method in brief: as §1
# Man(a1-3)[Man(a1-6)]Man = biological target: Man(a1-3)[Man(a1-6)]Man
# Method in brief: as §1
# [25] = biological target: Man(a1-3)[Man(a1-6)]Man(a1-6)[Man(a1-3)]Man(b1-4)GlcNAc(b1-4)GlcNAc
# Method in brief: as §1
# [26] = biological target: Man(a1-3)[Man(a1-6)]Man(b1-4)GlcNAc(b1-4)GlcNAc
# Method in brief: as §1
binder,measurement,setting,value
"STA (Solanum tuberosum), Q9S8M0 (protein) NASPPSPSPLPYPQCGMKKGGGKCIKTGECCSIWGWCGTTNAYCSPGYCQKQCPGPYPEGRCGWQANGKSCPTGTGQCCSNGGWCGTTSDYCASKNCQSQCKLPSPPPPPPPPSPPPPSPPSPPPPSPPPPPPPSPPPPSPPPPSPSPPPPPASPPPPPPALPYPQCGIKKGGGKCIKTGECCSIWGWCGTTNAYCSPGYCQKQCPGPYPEGRCGWQANGKSCPTGTGHCCSNAGWCGTTSDYCAPVNCQAQCNTTTLTSPIKNRMRGIESFMLNVV",glycan array binding signal (z-score),Gal6S(b1-4)Glc6S,-0.504
same,glycan array binding signal (z-score),Gal6S(b1-4)GlcNAc,-0.398
same,glycan array binding signal (z-score),GalNAc(a1-3)Gal,-0.568
same,glycan array binding signal (z-score),GalNAc(a1-3)GalNAc,-0.582
same,glycan array binding signal (z-score),[1],1.69
same,glycan array binding signal (z-score),GalNAc(b1-4)GlcNAc,1.92
same,glycan array binding signal (z-score),Glc(a1-4)Glc,-0.581
same,glycan array binding signal (z-score),Glc(a1-6)Glc(a1-6)Glc,-0.586
same,glycan array binding signal (z-score),Glc(b1-4)Glc,-0.594
same,glycan array binding signal (z-score),Glc(b1-6)Glc,-0.592
same,glycan array binding signal (z-score),GlcA(b1-3)Gal,-0.601
same,glycan array binding signal (z-score),GlcA(b1-6)Gal,-0.578
same,glycan array binding signal (z-score),[2],1.74
same,glycan array binding signal (z-score),[3],-0.577
same,glycan array binding signal (z-score),[4],-0.587
same,glycan array binding signal (z-score),[5],-0.577
same,glycan array binding signal (z-score),GlcNAc(b1-3)Gal,-0.595
same,glycan array binding signal (z-score),[6],-0.534
same,glycan array binding signal (z-score),GlcNAc(b1-3)Gal(b1-4)Glc,-0.601
same,glycan array binding signal (z-score),[7],0.717
same,glycan array binding signal (z-score),[8],1.68
same,glycan array binding signal (z-score),GlcNAc(b1-3)GalNAc,-0.585
same,glycan array binding signal (z-score),[9],-0.592
same,glycan array binding signal (z-score),[10],-0.59
same,glycan array binding signal (z-score),[11],-0.581
same,glycan array binding signal (z-score),[12],1.17
same,glycan array binding signal (z-score),[13],1.71
same,glycan array binding signal (z-score),[14],1.75
same,glycan array binding signal (z-score),[15],2.18
same,glycan array binding signal (z-score),[16],-0.583
same,glycan array binding signal (z-score),[17],-0.594
same,glycan array binding signal (z-score),GlcNAc(b1-6)GalNAc,-0.596
same,glycan array binding signal (z-score),Kdn(a2-3)Gal(b1-3)GlcNAc,-0.56
same,glycan array binding signal (z-score),Kdn(a2-3)Gal(b1-4)GlcNAc,1.65
same,glycan array binding signal (z-score),[18],-0.592
same,glycan array binding signal (z-score),[19],-0.447
same,glycan array binding signal (z-score),[20],-0.104
same,glycan array binding signal (z-score),[21],-0.593
same,glycan array binding signal (z-score),Man(a1-2)Man(a1-3)Man,-0.593
same,glycan array binding signal (z-score),[22],-0.586
same,glycan array binding signal (z-score),[23],0.864
same,glycan array binding signal (z-score),[24],-0.414
same,glycan array binding signal (z-score),Man(a1-3)[Man(a1-6)]Man,-0.595
same,glycan array binding signal (z-score),[25],-0.197
same,glycan array binding signal (z-score),[26],1.71
